Results: PubChem BioAssay AID485367 (National Center for Advancing Translational Sciences (NCATS), 2010)
Hit rate of the full screen: of about 330,000 compounds, about 560 (0.17%) were called active. The inconclusive results got no clear call from the source; some entries with a clear call stand among them for comparison. Calls follow the shape of the dose curve; as a rule, active = well fitted inhibition curve with a large enough effect; inconclusive = small, poorly fitted or top-dose-only effect, or effect the other way; inactive = flat fitted curve, though single readings scatter. Potencies of inconclusive entries are left out as doubtful fits.

The compounds below were run against ATP-dependent 6-phosphofructokinase (Trypanosoma brucei brucei) (UniProt O15648) (assay: qHTS Assay to Find Inhibitors of T. brucei phosphofructokinase). Conditions: T. brucei PFK, ADP-Glo luminescence; activity, negative = inhibition: at 57.5 µM (top of the series).
Chain of UniProt O15648 (O15648 whole entry, looked up): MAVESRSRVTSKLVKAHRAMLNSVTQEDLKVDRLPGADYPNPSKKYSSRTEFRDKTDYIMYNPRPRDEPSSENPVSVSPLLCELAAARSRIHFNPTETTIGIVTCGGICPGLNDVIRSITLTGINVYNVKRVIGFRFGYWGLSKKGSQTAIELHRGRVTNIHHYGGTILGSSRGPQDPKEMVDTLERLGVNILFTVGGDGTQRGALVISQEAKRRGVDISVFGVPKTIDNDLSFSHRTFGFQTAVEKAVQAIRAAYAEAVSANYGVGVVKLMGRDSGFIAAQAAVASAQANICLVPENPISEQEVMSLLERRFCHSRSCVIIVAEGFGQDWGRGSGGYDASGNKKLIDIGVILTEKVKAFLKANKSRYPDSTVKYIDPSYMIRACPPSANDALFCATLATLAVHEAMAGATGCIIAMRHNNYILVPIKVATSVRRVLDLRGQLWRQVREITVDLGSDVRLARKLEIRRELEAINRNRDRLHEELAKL
In short: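 Luminescent ADP detection (ADP-Glo, two-step: ATP depletion then ADP-to-ATP conversion for luciferase) reported PFK activity after 45 min room-temperature reaction of 1.25 nM enzyme with 0.5 mM F6P and 0.1 mM ATP at pH 8.0.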
Also: nearly all actives have a fitted effect of over 60% in size.
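For activity, negative = inhibition in this document: 0% = uninhibited 1x PFK enzyme wells and -100% = no-enzyme wells.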
Potency is read from the fitted curve at half-maximal effect; tags tell the direction and shape of the fitted curve.

| Compound | Potency | activity, negative = inhibition |
| --- | --- | --- |
| O=C(O)c1ccccc1NC(=S)NC(=O)c1sc2ccccc2c1Cl | inconclusive [activator, single point] |  |
| COc1cc2ccccc2cc1C(=O)NC(=S)Nc1cccc(C(=O)O)c1 |  | inactive: 3.47% |
| Clc1ccc(-c2c[n+](Cc3cccc(Cl)c3)c3n2CCC3)cc1 | inconclusive [falling, partial curve] |  |
| Cc1c(C(=O)N2CCC3(CC2)CC(=O)c2ccccc2O3)cccc1[N+](=O)[O-] | inconclusive [activator, single point] |  |
| COc1ccc(C=Nc2ccc3[nH]ncc3c2)c(O)c1 |  | inactive: -1.34% |
| CCC(C)[C@H]1CNCCN1CCc1cc(C(F)(F)F)cc(C(F)(F)F)c1 (some centres not stated) | inconclusive [falling, single point] |  |
| O=C(O)c1cccc(OS(=O)(=O)c2cc(Br)ccc2Br)c1 | inconclusive [falling, single point] |  |
| O=C(OCc1nc2ccccc2s1)C1CCN(S(=O)(=O)c2cccs2)CC1 | inconclusive [activator, partial curve, poor fit] |  |
| CC(C)c1ccc(S(=O)(=O)/N=C2/C=C(Sc3ncn[nH]3)C(=O)c3ccccc32)cc1 | inconclusive [falling, single point] |  |
| CC(C)(C)C(=O)Nc1ccc(C(=O)Nc2cccc(Oc3ccc(C(=O)O)c(C(=O)O)c3)c2)cc1 | active: 21.3 µM |  |
| CCOc1ccc(C=NNc2ccc(S(=O)(=O)Nc3ccccc3C(=O)O)cc2[N+](=O)[O-])cc1OC | inconclusive [falling, partial curve] |  |
| Cn1cc(Cl)c(/C(N)=N/OC(=O)c2ccccc2C(F)(F)F)n1 |  | inactive: -2.23% |
| COc1ccccc1NC(=O)c1ccc(CS(=O)(=O)c2ccc(C)cc2)cc1 | inconclusive [activator, single point] |  |
| Cc1ccc(Cl)cc1NC(=O)Nc1cccs1 | inconclusive [falling, single point] |  |
| N/C(=N\OC(=O)c1ccccc1[N+](=O)[O-])c1ccccn1 |  | inactive: -2.91% |
| O=C(COC(=O)CCOc1ccccc1)NCc1ccco1 | inconclusive [falling, full curve] |  |
| CCCC(=O)OCCNc1cc(Sc2nccn2C)c2nonc2c1[N+](=O)[O-] | inconclusive [falling, partial curve] |  |
| CC(=O)Nc1cc(NC(C)=O)cc(C(=O)OCC(=O)Nc2ccc(S(=O)(=O)NC3=NCCCCC3)cc2)c1 | inconclusive [falling, single point] |  |
| O=C(CN1CCCC1)Nc1c2c(cc3c1CCC3)CCC2 | inconclusive [falling, single point] |  |
| COC(=O)C1=C(C)N(CCCC(=O)O)C(=O)NC1c1cc2c(cc1[N+](=O)[O-])OCO2 (configuration not stated) |  | inactive: -12.2% |
| CCOC(=O)C1CCN(Cc2oc(CO)cc(=O)c2O)CC1 | inconclusive [falling, single point] |  |
| CCOC(=O)CCCNC(=O)COC(=O)[C@@H]1CCCN1S(=O)(=O)c1ccc(Cl)cc1 | inconclusive [falling, single point] |  |
| COc1ccccc1N(CC(=O)N1CCC(C(N)=O)CC1)S(=O)(=O)c1ccccc1 |  | inactive: 3.12% |

| Compound | Potency | activity, negative = inhibition |
| --- | --- | --- |
| C/C=C/C=C\C(=O)Nc1cccc(C2=NOC3(C2)C[C@@H](C(N)=O)N(C(=O)c2cc([N+](=O)[O-])cc([N+](=O)[O-])c2C)C3)c1 (some centres not stated) |  | inactive: -3.69% |
| COc1cccc(C(=O)Nc2ccc3c(C)cc(=O)oc3c2)c1 | inconclusive [falling, single point] |  |
| Cn1cccc1CC(=O)N/N=C/C=C/c1ccco1 | inconclusive [falling, single point] |  |
| O=C(CSc1ccccn1)N1CCN(c2cccc(Cl)c2)CC1 | inconclusive [falling, partial curve] |  |
| O=C1OC(c2cccs2)=N/C1=C/c1ccc(-c2cccc(C(=O)O)c2)o1 | inconclusive [activator, partial curve] |  |
| CC1Cc2ccccc2N1C(=O)c1ccc2snnc2c1 (configuration not stated) | inconclusive [falling, single point] |  |
| COc1ccc(-c2c(C(=O)O)c(-c3ccccc3)cn2C)cc1 | inconclusive [activator, single point] |  |
| Cc1ccccc1SCc1noc(C(=O)NC(C)C)c1C(=O)O |  | inactive: -1% |
| CCOc1cc(C(=O)OCc2ccc([N+](=O)[O-])cc2)ccc1OCC(=O)N1CCOCC1 | inconclusive [falling, partial curve] |  |
| COC(=O)c1ccc(NC(=S)NNC(=O)CC(C)C)cc1 | inconclusive [falling, single point] |  |
| Cc1ccc(NC(=O)CN2C(=O)N/C(=C/c3cccn3-c3ccc(C(=O)O)cc3)C2=O)cc1 | inconclusive [falling, partial curve] |  |
| Cc1oc2c(c(C)cc3oc(=O)c(CC(=O)NCC(=O)NCC(=O)O)c(C)c32)c1C | inconclusive [activator, partial curve] |  |
| O=C1Nc2cc3c(cc2C1=O)sc1ccccc13 | inconclusive [falling, partial curve] |  |
| C#CCOc1ccc(/C=C2/C(=O)N(c3cccc(C(=O)O)c3)N=C2C)cc1OC | inconclusive [falling, single point] |  |
| CCc1nnc(NS(=O)(=O)c2ccc(NC(=S)NC(=O)/C=C/c3ccc(OC)cc3)cc2)s1 | inconclusive [falling, full curve] |  |
| CC(=O)c1ccc(S(=O)(=O)N2CCNC(=O)C2)cc1 | inconclusive [falling, single point] |  |
| O=C(COc1cc2oc(=O)c3c(c2cc1Cl)CCC3)NCCCn1ccnc1 |  | inactive: 2.65% |
| CCCS(=O)(=O)N1CCCC(C(=O)NCCCOCC)C1 (configuration not stated) | inconclusive [falling, single point] |  |
| Cc1ccc(C(=O)COC(=O)COc2ccccc2[N+](=O)[O-])s1 |  | inactive: -29.4% |
| COCCNC(=O)/C(C#N)=C/c1ccc(O)cc1 | inconclusive [falling, partial curve] |  |
| CCOC(=O)c1ccc(NC(=O)c2ccccc2[N+](=O)[O-])cc1 |  | inactive: 1.87% |
| O=C(Nc1ccc2nn(-c3ccccc3)nc2c1)c1cccs1 | inconclusive [falling, partial curve] |  |
| CCc1nnc(NC(=O)c2ccc(S(=O)(=O)N(C)c3ccccc3)cc2)o1 |  | inactive: 0.812% |

| Compound | Potency | activity, negative = inhibition |
| --- | --- | --- |
| C#CCOCCOCCOCCNc1nc(N2CCN(C(=O)CCCCCCCCCCNC(=O)[C@H](CCCCN)n3cc(C)nn3)CC2)nc(N2CCN(C(=O)CCCCCCCCCCNC(=O)[C@H](CCCN=C(N)N)n3cc(C[C@@H](C)CC)nn3)CC2)n1 |  | inconclusive: 147% [activator] |
| Cc1ccc(C)c(-n2cc(CN3CCCN(C=O)CC3)c(-c3ccccc3)n2)c1 | inconclusive [activator, single point] |  |
| O=C(NCCO)Nc1ccc2nc(-c3ccco3)c(-c3ccco3)nc2c1 | active: 1.9 µM |  |
| O=C(NC(=S)Nc1ccccc1C(=O)O)c1ccc2ccccc2c1 | inconclusive [activator, partial curve] |  |
| C=CCNC(=O)c1c(-c2c(F)cccc2Cl)noc1C | inconclusive [falling, single point] |  |
| O=C(CCCCCNC(=O)c1ccccc1)N/N=C/c1ccccc1O | inconclusive [falling, single point] |  |
| CC(C)c1ccccc1OCC(=O)Nc1nnc(C2CC2)s1 | inconclusive [activator, single point] |  |
| Cc1ccsc1/C=N/N1CCN(Cc2ccccc2)CC1 |  | inactive: -0.729% |
| Cc1c(Br)c([N+](=O)[O-])nn1CC(=O)Nc1ccc(C(N)=O)cc1 | active: 19 µM |  |
| CCN(CC(=O)Nc1ccccc1C(F)(F)F)C(=O)CN1C(=O)NC2(CCCC2)C1=O |  | inactive: 2.68% |
| CC1CCN(S(=O)(=O)c2ccc3c(c2)N(CC(=O)NCCN2C(C)CCCC2C)C(=O)CS3)CC1 (configuration not stated) |  | inactive: -3.71% |
| Cc1ccc(NC(=O)c2cc(-c3ccc(C)o3)nc3ccccc23)nc1 | inconclusive [falling, partial curve] |  |
| CCOC(=O)CSC1=C(C#N)C(=O)NC(c2ccc(OC)c(OC)c2)S1 (configuration not stated) | inconclusive [falling, single point] |  |
| CCCNC(=O)NNC(=O)c1ccc(F)cc1 | inconclusive [falling, partial curve] |  |
| O=C(COc1ccc(/C=C\[N+](=O)[O-])cc1)N1CCOCC1 | inconclusive [activator, full curve] |  |
| COc1cccc(=O)c2c(C)n(C)c(C)c12 | inconclusive [falling, single point] |  |
| c1ccc(C2CSc3ccccc3N2)cc1 (configuration not stated) | inconclusive [falling, partial curve] |  |
| N#CC1=C(Nc2ccccc2Cl)SC(c2ccccc2O)NC1=O (configuration not stated) | inconclusive [falling, single point] |  |
| COc1ccc(C(=O)N[C@H](C(=O)OCn2nnc3ccccc3c2=O)C(C)C)cc1 | inconclusive [activator, single point] |  |
| COc1cccc(CNc2ccc(F)c(Cl)c2)c1 | active: 23.9 µM |  |
| O=C(COc1cccc(C(F)(F)F)c1)Nc1ccc(S(=O)(=O)N2CCCC2)cc1 | inconclusive [falling, partial curve, poor fit] |  |
